EP0555351B1, “OXYSULFONYL CARBAMATES” (WARNER-LAMBERT COMPANY, priority 1990, dated 1992)
pIC50: −log10 of the molar value. At least one structure is not confirmed: it was looked up by name or label, or the drawing left a doubt.

The compounds below were run against acyl-CoA: cholesterol acyltransferase (ACAT) (assay: in vitro ACAT inhibition test (IAI): formation of radiolabeled cholesterol oleate from radiolabeled oleic acid in intestinal microsomes). Settings: tissue preparation containing rabbit intestinal microsomes; concentration required to inhibit the activity of the enzyme by 50%; read-out: IAI IC₅₀.
Format: biochemical
Method: The ability of representative compounds of the present invention to inhibit ACAT was measured using an in vitro test more fully described in F. J. Field and R. G. Salone, Biochemica et Biophysica 712:557-570 (1982). The test assesses the ability of a test compound to inhibit the acylation of cholesterol by oleic acid by measuring the amount of radiolabeled cholesterol oleate formed from radiolabeled oleic acid in a tissue preparation containing rabbit intestinal microsomes.
The data appear in Table 1 where they are expressed in IC₅₀ values; i.e., the concentration of test compound required to inhibit the activity of the enzyme by 50%.

Going from `CC(C)c1cccc(C(C)C)c1OC(=O)NS(=O)(=O)Oc1c(C(C)C)cccc1C(C)C` [Example 1, 2,6-Bis(1-methylethyl)phenyl[[2,6-bis(1-methylethyl)phenoxy]sulfonyl]carbamate] to `Cc1cccc(C)c1OS(=O)(=O)NC(=O)Oc1c(C(C)C)cccc1C(C)C` [Example 18, 2,6-Bis(1-methylethyl)phenyl[(2,6-dimethylphenoxy)sulfonyl]carbamate], the pIC50 falls from 4.54 to less than 4.30.

`Cc1cc(C(C)(C)C)c(OC(=O)NS(=O)(=O)Oc2ccccc2)c(C(C)(C)C)c1` [Example 2, 2,6-Bis(1,1-dimethylethyl)-4-methylphenyl(phenoxysulfonyl)carbamate] and `CCCCCCOS(=O)(=O)NC(=O)Oc1c(C(C)(C)C)cc(C)cc1C(C)(C)C` [Example 3, 2,6-Bis(1,1-dimethylethyl)-4-methylphenyl[(hexyloxy)sulfonyl]carbamate] are within 0.2 log units of each other in pIC50: 4.05 for the first, 4.02 for the second.

First: CCCCCCOS(=O)(=O)NC(=O)Oc1c(C(C)C)cccc1C(C)C [Example 7, 2,6-Bis(1-methylethyl)phenyl[(hexyloxy)sulfonyl]carbamate]
Second: CCCCCCCCCCCCCCCCOS(=O)(=O)NC(=O)Oc1c(C(C)C)cccc1C(C)C [Example 23, 2,6-Bis(1-methylethyl)phenyl[(hexadecyloxy)sulfonyl]carbamate]
The pIC50 of the first is 0.60 log units lower: 4.40 for the first, 5.00 for the second. The second is the more potent here.

Compared with `CC(C)c1cccc(C(C)C)c1OS(=O)(=O)NC(=O)Oc1c(C(C)(C)C)cccc1C(C)(C)C` [Example 9, 2,6-Bis(1,1-dimethylethyl)phenyl[[2,6-bis(1-methylethyl)phenoxy]sulfonyl]carbamate], `CC(C)c1cccc(C(C)C)c1OC(=O)NS(=O)(=O)Oc1c(C(C)(C)C)cccc1C(C)(C)C` [Example 24, 2,6-Bis(1-methylethyl)phenyl[[2,6-bis(1,1-dimethylethyl)phenoxy]sulfonyl]carbamate] is 0.62 log units lower in pIC50: 4.92 for the first, 4.30 for the second. The first is the more potent here.

`CC(C)c1cccc(C(C)C)c1OC(=O)NS(=O)(=O)Oc1ccccc1` [Example 17, 2,6-Bis(1-methylethyl)phenyl(phenoxysulfonyl)carbamate] and `COc1cccc(OC)c1OS(=O)(=O)NC(=O)Oc1c(C(C)C)cccc1C(C)C` [Example 19, 2,6-Bis(1-methylethyl)phenyl[(2,6-dimethoxyphenoxy)sulfonyl]carbamate] cannot be ordered by pIC50: less than 4.30 for the first, less than 4.30 for the second.

Compared with `COc1cc(OC)c(OS(=O)(=O)NC(=O)Oc2c(C(C)C)cccc2C(C)C)c(OC)c1` [Example 21, 2,6-Bis(1-methylethyl)phenyl[(2,4,6-trimethoxyphenoxy)sulfonyl]carbamate], `COc1cccc(OC)c1OC(=O)NS(=O)(=O)Oc1c(OC)cccc1OC` [Example 25, 2,6-dimethoxyphenyl[(2,6-dimethoxyphenoxy)sulfonyl]carbamate] is higher in pIC50: less than 4.30 for the first, 5.19 for the second.

With `CC(C)(C)c1cccc(C(C)(C)C)c1OC(=O)NS(=O)(=O)Oc1c(C(C)(C)C)cccc1C(C)(C)C` [Example 26, 2,6-Bis(1,1-dimethylethyl)phenyl[(2,6-bis(1,1-dimethylethyl)phenoxy)sulfonyl]carbamate] the pIC50 was 4.52.
